Sequences with one replicate were seen in a single cluster, so their values are uncertain.
System: ATP
Experiment: switch fluorescence ratio, 500 uM ATP over buffer (Cy3 cluster intensity, sum of 5 cycles each) (fold (ratio)); higher = stronger signal-on switching upon ATP binding; sequences stand for … in TCGTCGGCAGCGTCAGATGTGTATAAGAGACAGTTTTTTTTTTTTTTTTTTTTTTTTT…TC
Details: aptamer strand: ATP DNA aptamer (quencher-CACCTGGGGGAGTATTGCGGAGGAAGG + anchor), 100 nM annealed; ATP concentration: 500 uM; one replicate
Summary of the method: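 Between each of five buffer/ATP cycles, the flow-cell was stripped with NaOH and re-annealed. Each cycle imaged Cy3-labelled switching-strand clusters, annealed to 100 nM quencher-labelled ATP aptamer on a modified Illumina MiSeq flow-cell, first in selection buffer and then after 15 min with 500 uM ATP at 22 °C. The fluorescence ratio is summed target-cycle over summed buffer-cycle Cy3 intensity per cluster, averaged per switch-domain sequence, with clusters outside 100-1000 RFU excluded.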
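Further: ATP exposure 15 min at 22 °C before imaging.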

AGAGGTGCCA
switch fluorescence ratio: 0.972

ATAAGTAGC
switch fluorescence ratio: 0.973

TATACCTCT
switch fluorescence ratio: 1

CATGATAAAG
switch fluorescence ratio: 0.986

GGAAGCCGCG
switch fluorescence ratio: 0.994

TCTGGGATCG
switch fluorescence ratio: 1

AATCTCTCCG
switch fluorescence ratio: 1.34

CTGACGGGCT
switch fluorescence ratio: 1.07

CGTAGCGAGG
switch fluorescence ratio: 1.44

ATGTCTGTTA
switch fluorescence ratio: 1.02

TGGCATTGG
switch fluorescence ratio: 0.942

GGTCTTCCCG
switch fluorescence ratio: 1.03

TTGTATAGAT
switch fluorescence ratio: 1

GGGTATAATT
switch fluorescence ratio: 0.985

GAATCGTAAG
switch fluorescence ratio: 0.996

ATCGAGAATG
switch fluorescence ratio: 1

ACGCCGCAT
switch fluorescence ratio: 2.7

TGGTTTAGG
switch fluorescence ratio: 0.96

ATTAAAGAGT
switch fluorescence ratio: 1.02

GTTCCGAGCT
switch fluorescence ratio: 2.06

CTTTTAGAAG
switch fluorescence ratio: 0.978

TGAGATAGCG
switch fluorescence ratio: 0.969

GTTTACGAGG
switch fluorescence ratio: 0.995

GCGGAGGCCG
switch fluorescence ratio: 0.886

AGATTGTCCG
switch fluorescence ratio: 1.02

GACTGATAGA
switch fluorescence ratio: 1.03

AAGAACCAAC
switch fluorescence ratio: 1.17

AACCGAAAGC
switch fluorescence ratio: 1.32

TTCGCGGAGT
switch fluorescence ratio: 0.981

GCCTATAAAA
switch fluorescence ratio: 0.972

CCTGGTAGGC
switch fluorescence ratio: 1.07

GACAATACAT
switch fluorescence ratio: 1.12

TTCGTGCGTA
switch fluorescence ratio: 1.01

TCTGCCTGAT
switch fluorescence ratio: 0.997

TCGTCATGAT
switch fluorescence ratio: 0.987

GGGGTATGC
switch fluorescence ratio: 1.03

TTGAATCGCT
switch fluorescence ratio: 0.993

ATAGCCTTCA
switch fluorescence ratio: 1.72

AAATAAATA
switch fluorescence ratio: 0.966

GTTAGTTAAT
switch fluorescence ratio: 1.01

CTACAGCCGT
switch fluorescence ratio: 1.11

ATATGTTATC
switch fluorescence ratio: 1.06

CTACGCAGCT
switch fluorescence ratio: 5.95

TAGATTATGT
switch fluorescence ratio: 0.975

GAGAATGCT
switch fluorescence ratio: 1

ACATCCCTG
switch fluorescence ratio: 0.995

GATTATATGA
switch fluorescence ratio: 0.982

GATTGTCTAA
switch fluorescence ratio: 0.991

GGGATTGCAT
switch fluorescence ratio: 1.03

CTCGGTATGG
switch fluorescence ratio: 0.992

ATTGCTGGGA
switch fluorescence ratio: 0.991

TGACTAGTCA
switch fluorescence ratio: 1

GGAATCTATA
switch fluorescence ratio: 0.952

ACTCGAAT
switch fluorescence ratio: 1.04

AACAGAACCG
switch fluorescence ratio: 1.14

ATGCCGGCGT
switch fluorescence ratio: 0.983

AGACTCAGG
switch fluorescence ratio: 0.967

GAAATCCTAT
switch fluorescence ratio: 0.964

AAGATTCATA
switch fluorescence ratio: 0.947

CGAGATGCAG
switch fluorescence ratio: 0.911

AACAATCGGC
switch fluorescence ratio: 1.04

ATGGACGATA
switch fluorescence ratio: 1.03

GTCGGACAAT
switch fluorescence ratio: 1.01

TTGGAAAAGC
switch fluorescence ratio: 0.991

TTAGGTCGAT
switch fluorescence ratio: 1.01

GGGTCGGATT
switch fluorescence ratio: 0.956

GTAGCGACGA
switch fluorescence ratio: 1.16

ATGTGAGTCC
switch fluorescence ratio: 1.03

CTAGACCAAG
switch fluorescence ratio: 0.961

CGGATGCATC
switch fluorescence ratio: 1.05

ATTTGTAGGA
switch fluorescence ratio: 0.953

AGTACTCGAG
switch fluorescence ratio: 1.02

GAGTTCCTGG
switch fluorescence ratio: 0.985

ACGCTTTGTT
switch fluorescence ratio: 1.06

GGAGACGCCT
switch fluorescence ratio: 0.971

TATGTGAGAG
switch fluorescence ratio: 0.998

CGATCCTCAG
switch fluorescence ratio: 1.03

AGTCTTTGCA
switch fluorescence ratio: 0.972

GGTCTTCAA
switch fluorescence ratio: 0.968

ATCTCGGTGC
switch fluorescence ratio: 1.04

ATGAATTCCG
switch fluorescence ratio: 1.01

CGTAGTATCA
switch fluorescence ratio: 0.998

TCCAGTTTTG
switch fluorescence ratio: 1

GGACTACTAG
switch fluorescence ratio: 1.07

TGCTCAAGGG
switch fluorescence ratio: 1.01

TCTCTACAGC
switch fluorescence ratio: 1.02

TCAGAAAACG
switch fluorescence ratio: 0.996

AGCTCAGATT
switch fluorescence ratio: 0.956

AGTTACGAGG
switch fluorescence ratio: 1.01

CCAAATACGA
switch fluorescence ratio: 2.22

ACGATGTCGT
switch fluorescence ratio: 1.03

AAAGTACAAG
switch fluorescence ratio: 1.18

ACATGTAACC
switch fluorescence ratio: 0.979

CGTAAGGACA
switch fluorescence ratio: 1

TACAATGATA
switch fluorescence ratio: 0.999

GCCTTTACA
switch fluorescence ratio: 0.963

TCGTTCCTAG
switch fluorescence ratio: 1.02

ACTTCTTCTC
switch fluorescence ratio: 1.03

ATTGGGTGCG
switch fluorescence ratio: 0.952

CAAACAACGG
switch fluorescence ratio: 1.03

AGCAGAGTTT
switch fluorescence ratio: 1.02

GTCCGTACAG
switch fluorescence ratio: 1.04

GTTTCAGGAC
switch fluorescence ratio: 1.02

TCGTTCTCCT
switch fluorescence ratio: 1.02

TATGGATAGC
switch fluorescence ratio: 1.03

AGTAAAATCC
switch fluorescence ratio: 1.04

CATCTAGCTT
switch fluorescence ratio: 1.08

TCACAATGTA
switch fluorescence ratio: 0.993

CGAACTATGG
switch fluorescence ratio: 1

TAGAGAACTT
switch fluorescence ratio: 1.02

GGTTTTGCCT
switch fluorescence ratio: 0.973

GCATTTCGAA
switch fluorescence ratio: 0.986

GGCTTTGATC
switch fluorescence ratio: 1.05

GGAAGATAGG
switch fluorescence ratio: 0.976

GAAAGGCATC
switch fluorescence ratio: 1

CGGTCCTGAC
switch fluorescence ratio: 1.15

CAAGCCTCGT
switch fluorescence ratio: 1.02

CCCCTGATTC
switch fluorescence ratio: 1.04

CGACCCTCCT
switch fluorescence ratio: 1.07

AGTCTGAGGT
switch fluorescence ratio: 0.96

TTTGTGCCCT
switch fluorescence ratio: 1.01

TTACGCATA
switch fluorescence ratio: 1.93

TCGCAACTAT
switch fluorescence ratio: 3.4

TGCTTCGTTA
switch fluorescence ratio: 1.09

ATGGAGCTG
switch fluorescence ratio: 1.03

AAAAGCCCC
switch fluorescence ratio: 1.07

GTGTTCACCG
switch fluorescence ratio: 0.98

TCGCTATGGC
switch fluorescence ratio: 1.22

GGTACTTCA
switch fluorescence ratio: 1.04

CAGCTTTCTC
switch fluorescence ratio: 1.39

AACGGACACG
switch fluorescence ratio: 1.04

TATGCATCAT
switch fluorescence ratio: 1.02

CGGCCCCATT
switch fluorescence ratio: 1.01

CATGCGTTAA
switch fluorescence ratio: 1.06

CCCGTTGAGA
switch fluorescence ratio: 0.997

GCCATCAGAA
switch fluorescence ratio: 0.99

TCTTCATCCA
switch fluorescence ratio: 1.24

ATGTGGCGAT
switch fluorescence ratio: 0.997

TTGCTAGACA
switch fluorescence ratio: 1

GGGCGGATAT
switch fluorescence ratio: 1

GAGCCTTCGT
switch fluorescence ratio: 1.04

AGACTTAGG
switch fluorescence ratio: 1.02

TAAAACAATA
switch fluorescence ratio: 1.02

CCTAATCCGG
switch fluorescence ratio: 1.09

CAATGAGGCT
switch fluorescence ratio: 0.995

GCTCGCATAG
switch fluorescence ratio: 1.98

TTAACTGCAG
switch fluorescence ratio: 0.991

GTCGTGTTTT
switch fluorescence ratio: 1.01

TAGGGTGCC
switch fluorescence ratio: 1.01

GCTAGTTGAA
switch fluorescence ratio: 1.01

TTACGGCAAT
switch fluorescence ratio: 1.68

TTAATTCCGG
switch fluorescence ratio: 1.01

GCGTACATTT
switch fluorescence ratio: 1.02

ACTAGTTG
switch fluorescence ratio: 0.941

GTGCGAAAAG
switch fluorescence ratio: 0.978

ACCAGTGACT
switch fluorescence ratio: 1.13

GACTACGGGA
switch fluorescence ratio: 2.3

GGGCCCGCGG
switch fluorescence ratio: 0.989

TTTACCTCTC
switch fluorescence ratio: 1.04

ACCGTGCTCA
switch fluorescence ratio: 1.04

AGACTGGTCC
switch fluorescence ratio: 1.05

TAAAACACTA
switch fluorescence ratio: 1.05

TATAGTAATG
switch fluorescence ratio: 0.985

CTTTAGGGGG
switch fluorescence ratio: 1.02

CGTAACGTT
switch fluorescence ratio: 0.993

ATTCCTTTTC
switch fluorescence ratio: 0.923

TTAGGCACCA
switch fluorescence ratio: 1.01

ACTTTATCAT
switch fluorescence ratio: 1.06

AGTCAATTCA
switch fluorescence ratio: 0.968

ACGCTAATTT
switch fluorescence ratio: 1.21

CTAAGGTG
switch fluorescence ratio: 1.5

CAACGGGGAA
switch fluorescence ratio: 1.07

CGTTCAAGTG
switch fluorescence ratio: 0.965

GAGGCTGTGT
switch fluorescence ratio: 1.01

GCCTTTTTAT
switch fluorescence ratio: 0.99

TCACGCACGC
switch fluorescence ratio: 1.85

GCATGCTACA
switch fluorescence ratio: 0.998

GTGAGTCGAT
switch fluorescence ratio: 0.979

ATTTGGTAGA
switch fluorescence ratio: 1

TATGAAC
switch fluorescence ratio: 1.06

TAAGAGTTAG
switch fluorescence ratio: 0.947

TACATTTGGT
switch fluorescence ratio: 1.01

TCTTTTAATA
switch fluorescence ratio: 0.984

ATGGTTCCGG
switch fluorescence ratio: 1.02

GCGGGCTCTG
switch fluorescence ratio: 0.989

GATAGTAGGT
switch fluorescence ratio: 1.38

TGGGGTGACC
switch fluorescence ratio: 0.997

AGTGGGGAGG
switch fluorescence ratio: 1.04

TTGGTGTCCT
switch fluorescence ratio: 1.04

CAGTAGTCTG
switch fluorescence ratio: 0.975

TCGCCAACGT
switch fluorescence ratio: 0.951

CCATGTCAC
switch fluorescence ratio: 1.07

ACTGCTTAAT
switch fluorescence ratio: 1.06

CACTAATATA
switch fluorescence ratio: 0.984

GCCATGCGGG
switch fluorescence ratio: 1.01

TTGGACCCGG
switch fluorescence ratio: 1.08

CCACGCCGAC
switch fluorescence ratio: 2.54

CGATCCAACG
switch fluorescence ratio: 0.993

ATACAATTGA
switch fluorescence ratio: 1

GCGTAAGCCA
switch fluorescence ratio: 0.946

TAGGGTTAGT
switch fluorescence ratio: 0.98

Source: the supplement of paper PMC10126150
